These results are taken from article PMC4336329 (PLoS ONE, 2015).

Among all 310,000 compounds or so, about 2,200 (0.71%) showed an effect of 50% or more. Effects have a minus sign here. Some of the results follow.

For this assay, the target named is human ether-à-go-go-related gene (hERG) potassium channel (human, UniProt Q12809). Nature of the assay: primary screen, population patch clamp on CHO cells stably expressing hERG.
Chain of human ether-à-go-go-related gene (hERG) potassium channel (Q12809 whole entry, looked up): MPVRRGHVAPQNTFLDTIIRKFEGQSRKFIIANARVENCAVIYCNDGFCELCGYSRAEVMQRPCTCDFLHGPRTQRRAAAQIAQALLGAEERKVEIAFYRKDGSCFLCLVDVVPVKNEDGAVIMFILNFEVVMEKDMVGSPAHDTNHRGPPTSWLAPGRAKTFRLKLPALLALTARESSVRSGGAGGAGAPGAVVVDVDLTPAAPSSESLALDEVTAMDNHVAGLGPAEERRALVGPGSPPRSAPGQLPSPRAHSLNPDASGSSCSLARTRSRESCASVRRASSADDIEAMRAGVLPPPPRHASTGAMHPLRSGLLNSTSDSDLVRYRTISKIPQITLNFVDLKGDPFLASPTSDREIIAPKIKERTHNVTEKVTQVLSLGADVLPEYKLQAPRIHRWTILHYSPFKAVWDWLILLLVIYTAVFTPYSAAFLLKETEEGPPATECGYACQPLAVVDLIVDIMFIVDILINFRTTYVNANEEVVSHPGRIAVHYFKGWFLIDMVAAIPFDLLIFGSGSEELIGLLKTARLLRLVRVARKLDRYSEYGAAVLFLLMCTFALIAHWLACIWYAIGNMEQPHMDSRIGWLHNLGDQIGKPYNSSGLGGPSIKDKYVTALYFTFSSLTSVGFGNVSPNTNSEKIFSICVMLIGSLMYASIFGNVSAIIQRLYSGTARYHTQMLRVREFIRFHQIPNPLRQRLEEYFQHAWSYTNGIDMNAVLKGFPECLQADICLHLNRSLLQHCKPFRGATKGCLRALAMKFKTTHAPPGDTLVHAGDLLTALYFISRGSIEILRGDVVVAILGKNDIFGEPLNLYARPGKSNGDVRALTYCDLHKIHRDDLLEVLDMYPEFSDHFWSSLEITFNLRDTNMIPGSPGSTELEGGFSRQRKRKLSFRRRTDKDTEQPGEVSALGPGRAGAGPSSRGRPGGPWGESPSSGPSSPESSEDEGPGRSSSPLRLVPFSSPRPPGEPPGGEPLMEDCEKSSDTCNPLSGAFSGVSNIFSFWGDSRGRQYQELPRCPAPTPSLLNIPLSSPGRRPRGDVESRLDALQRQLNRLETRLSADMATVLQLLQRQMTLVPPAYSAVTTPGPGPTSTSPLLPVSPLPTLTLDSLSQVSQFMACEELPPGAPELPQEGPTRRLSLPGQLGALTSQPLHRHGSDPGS
Take `O=C(NCCCn1ccnc1)C1CCN(S(=O)(=O)c2ccc(F)cc2)CC1`: the “hERG current change (%, negative = inhibition) at 1uM” value stood at 16.3%.
As to `CC1CCN(S(=O)(=O)c2ccc(NN=C(C#N)C#N)cc2)CC1`, the “hERG current change (%, negative = inhibition) at 1uM” value is on record as -7.75%.
As for `Cc1cc(NC2CCCCC2)nc(N2CCOCC2)n1`, the figure is -1.28%; as for `Br.O=C(O)Cc1sc(N/N=C\c2ccccc2)nc1-c1ccccc1`, 4.28%.
The same measure for `COc1ccc(NC(=O)COC(=O)CCc2cc(OC)c(OC)c(OC)c2)c([N+](=O)[O-])c1`: 0.85%; for `COc1cc(OC)c(NS(=O)(=O)c2cc(C(=O)OC(C)C(=O)NC3CC3)c(Cl)cc2Cl)cc1Cl` (centres unmarked): 2.75%; for `O=C1C2C3CCCC3=C3CCCC3C2C(=O)N1c1ccc(Cl)cc1` (centres unmarked): 9.92%.
As for `CC(C)=CCN1CCN(Cc2ccc(N3CCNC3=O)cc2)CC1CCO` (centres unmarked), the figure is 3.41%; as for `C=CCOn1c(=O)c(-c2cccs2)[n+]([O-])c2ccccc21`, -7.47%; as for `O=C1CC(N2CCOCC2)C(=O)N1c1ccccc1Cl` (centres unmarked), 0.198%.
Take `CS(=O)(=O)c1ccc(N2CCN(S(=O)(=O)c3cccs3)CC2)c([N+](=O)[O-])c1`: the “hERG current change (%, negative = inhibition) at 1uM” value was -31.9%.
As for `CCN(CC)c1ccc(NC(=O)COc2ccc(N(C)S(=O)(=O)c3cccs3)cc2)cc1`, the figure is 8.38%; as for `CNc1nc(Nc2ccccc2)nc(OCC(F)(F)F)n1`, 6.56%.
The same measure for `Cc1ccc(C(=O)N[C@H](C(=O)Nc2cc(Cl)cc(Cl)c2)C(C)C)cc1`: 18%; for `COCCn1c(SCC(=O)Nc2cccc(OC)c2)nnc1-c1ccc(Cl)cc1`: 0.924%.
`Cc1ccc2c(c1)/C(=N/OC(=O)c1ccc(F)cc1)CCS2`: the “hERG current change (%, negative = inhibition) at 1uM” value turned out to be 10.8%.
The same measure for `O=C(NCCc1ccccc1)c1ccc(OCCOc2ccccc2)cc1`: 16.2%; for `CN(CCCNC(=O)CCCOc1cc(=O)n(C)c2ccccc12)Cc1ccccc1`: -4.24%.
The same measure for `O=C(COc1ccc(-n2cnnn2)cc1)Nc1cccc(Cl)c1Cl`: 16%; for `Cc1ccc(-c2nnn(CCOc3cccc(Br)c3)n2)cc1`: 7.85%; for `Cc1ccc(S(=O)(=O)N/N=C/c2cccs2)cc1`: 0.864%.
For the molecule `Cc1c(F)cccc1NS(=O)(=O)c1ccc2c(c1)c(C)cc(=O)n2C`, the “hERG current change (%, negative = inhibition) at 1uM” value is on record as 11.8%.
As for `Cc1[nH]nc(SCC(=O)Nc2ccc(C#N)cc2)c1[N+](=O)[O-]`, the figure is 10.2%.
The same measure for `COc1cc(/C=C2\SC(=O)N(CC(=O)Nc3cccc(C)c3)C2=O)ccc1OC(C)C(=O)O` (centres unmarked): 1.85%.
As for `CCOC(=O)C(=O)Nc1cc(C)on1`, the figure is 8.09%; as for `CCN1C(=O)c2cccc3c(S(=O)(=O)NCc4ccco4)ccc1c23`, 6.91%; as for `CC(Sc1ccc(Cl)cc1)C(=O)NNC(=O)c1ccccc1O` (centres unmarked), 11.7%.
On to `C#CC(CC)(CC)NC(=S)Nc1cccc(C(C)=O)c1`, for which the “hERG current change (%, negative = inhibition) at 1uM” value is recorded as -2.76%.
Take `CCOc1ccc(OCCN(C)Cc2ccccc2)cc1.O=C(O)C(=O)O`: the “hERG current change (%, negative = inhibition) at 1uM” value is -25.5%.
In the case of `CCOC(=O)c1c(C)n(-c2ccccc2)c2ccc(O)cc12`, the “hERG current change (%, negative = inhibition) at 1uM” value stood at 13.5%.
As for `Cn1c(Cn2c(=O)sc3ccccc32)nnc1SCC(=O)N1CCOCC1`, the “hERG current change (%, negative = inhibition) at 1uM” value was 6.18%.
For `Cc1c(OC(C)C(=O)NCc2ccncc2)ccc2c3c(c(=O)oc12)CCC3` (centres unmarked), the “hERG current change (%, negative = inhibition) at 1uM” value amounted to 17.3%.
The same measure for `CCNC(=S)N1CCc2cc(OC)c(OC)cc2C1COc1ccc(F)cc1` (centres unmarked): 6.89%; for `COc1ccc(C2SCC(C(=O)O)N2C(C)=O)cc1OC` (centres unmarked): 1.3%.
The same measure for `N#Cc1nc(Cc2ccccc2)oc1N1CCCC1`: 4.79%; for `COc1cc(NC(=O)CSCc2cnn(-c3ccccc3)c2-n2cccc2)cc(OC)c1`: 17.3%.
For the molecule `O=C(NCc1ccco1)/C(=C/c1ccc([N+](=O)[O-])cc1)NC(=O)c1ccco1`, the “hERG current change (%, negative = inhibition) at 1uM” value is listed as -50.4%.
As for `Cc1nc(CN(C)C(=O)CC2C(=O)NCCN2Cc2ccc(-c3ccccc3)cc2)cs1` (centres unmarked), the figure is 5.2%.
For `CC1(Br)C2CCCC1C2S(=O)(=O)c1ccccc1` (centres unmarked), the “hERG current change (%, negative = inhibition) at 1uM” value is on record as 11.2%.
Consider `Cc1ccc(-n2nc(C)c(C3(O)C(=O)N(C(C)C)c4ccccc43)c2N)cc1` (centres unmarked), for which the “hERG current change (%, negative = inhibition) at 1uM” value turned out to be 9.7%.
The same measure for `Cc1nnc(NCCN2CCOCC2)[nH]c1=O`: 6.92%.
The same measure for `Cc1cc(=O)oc2c(C)c(OCC(=O)NCC3CCC(C(=O)O)CC3)ccc12` (centres unmarked): 9.51%.
The same measure for `CCC(C)NC(=O)CCn1c(-c2ccc(F)cc2)cc(C(C)=O)c1C` (centres unmarked): 8.96%.
For `CCOc1ccc(CCNC(=O)CCN2C(=O)COc3ccccc32)cc1OCC`, the “hERG current change (%, negative = inhibition) at 1uM” value worked out at 6.22%.
